For assay [1], the target named is Flag-tagged STX17 (syntaxin 17) (UniProt P56962). As to the kind of experiment: co-IP; Wild-type or Fis1 KO HeLa cells transfected with Flag-STX17 (or its mutants) and the indicated plasmids for 24 h; IP with anti-Flag beads and immunoblotting; also in cells cultured in glucose or galactose medium for 18 h.
The next assay has as its target Flag-tagged Drp1, O00429. Nature of the assay: co-IP; HEK293T cells co-transfected with Myc-tagged STX17 (or truncations) and Flag-tagged plasmids for 24 h; IP with anti-Flag, blots with anti-Myc and anti-Flag; NP-40 lysis buffer, FLAG M2 beads, 4 °C, 3 h. Conditions: remark: other sources report otherwise.
A further assay has as its target T1, Flag-tagged Mfn2, O95140.
T1 chain: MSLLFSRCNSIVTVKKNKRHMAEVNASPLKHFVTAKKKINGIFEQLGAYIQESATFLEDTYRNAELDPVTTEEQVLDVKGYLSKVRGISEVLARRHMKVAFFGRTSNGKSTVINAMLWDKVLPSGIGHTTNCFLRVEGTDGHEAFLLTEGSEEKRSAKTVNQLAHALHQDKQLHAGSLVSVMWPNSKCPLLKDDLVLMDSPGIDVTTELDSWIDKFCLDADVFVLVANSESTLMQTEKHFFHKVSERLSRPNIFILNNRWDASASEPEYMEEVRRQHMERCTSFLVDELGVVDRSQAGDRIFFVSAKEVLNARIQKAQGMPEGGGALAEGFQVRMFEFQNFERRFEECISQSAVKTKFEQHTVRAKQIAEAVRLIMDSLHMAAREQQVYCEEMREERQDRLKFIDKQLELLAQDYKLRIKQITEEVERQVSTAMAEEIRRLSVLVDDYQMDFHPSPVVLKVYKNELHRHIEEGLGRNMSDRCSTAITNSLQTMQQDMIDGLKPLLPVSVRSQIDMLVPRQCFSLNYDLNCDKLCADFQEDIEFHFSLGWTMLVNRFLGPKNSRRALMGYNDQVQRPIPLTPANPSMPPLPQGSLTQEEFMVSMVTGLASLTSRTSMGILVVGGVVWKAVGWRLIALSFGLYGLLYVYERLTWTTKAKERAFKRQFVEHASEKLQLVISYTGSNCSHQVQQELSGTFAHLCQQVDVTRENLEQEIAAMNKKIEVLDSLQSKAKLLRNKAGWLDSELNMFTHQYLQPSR
The assay is described as above. Conditions: remark: other sources report otherwise.

Assay [2] addresses T2, Flag-tagged STX17 (syntaxin 17), P56962.
T2 chain: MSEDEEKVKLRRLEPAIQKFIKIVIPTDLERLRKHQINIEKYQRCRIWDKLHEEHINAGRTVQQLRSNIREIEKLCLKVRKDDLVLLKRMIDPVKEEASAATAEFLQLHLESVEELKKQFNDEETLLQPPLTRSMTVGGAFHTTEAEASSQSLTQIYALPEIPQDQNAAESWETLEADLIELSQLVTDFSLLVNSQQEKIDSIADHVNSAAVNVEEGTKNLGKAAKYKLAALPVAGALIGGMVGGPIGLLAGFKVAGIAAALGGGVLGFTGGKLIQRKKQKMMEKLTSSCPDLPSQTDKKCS
Nature of the assay: co-IP; Wild-type or Fis1 KO HeLa cells transfected with Flag-STX17 (or its mutants) and the indicated plasmids for 24 h; IP with anti-Flag beads and immunoblotting; also in cells cultured in glucose or galactose medium for 18 h. The following applies: remark: other sources report otherwise.

Results are given in words; binding and its absence hold for the method and conditions named. In cells and extracts the contact can be indirect. For part of these data: Tags and fused reporters may be left off the sequences shown.

B1: DFCP1 (protein, UniProt Q9HBF4 1-777)
chain: MSAQTSPAEKGLNPGLMCQESYACSGTDEAIFECDECCSLQCLRCEEELHRQERLRNHERIRLKPGHVPYCDLCKGLSGHLPGVRQRAIVRCQTCKINLCLECQKRTHSGGNKRRHPVTVYNVSNLQESLEAEEMDEETKRKKMTEKVVSFLLVDENEEIQVTNEEDFIRKLDCKPDQHLKVVSIFGNTGDGKSHTLNHTFFYGREVFKTSPTQESCTVGVWAAYDPVHKVAVIDTEGLLGATVNLSQRTRLLLKVLAISDLVIYRTHADRLHNDLFKFLGDASEAYLKHFTKELKATTARCGLDVPLSTLGPAVIIFHETVHTQLLGSDHPSEVPEKLIQDRFRKLGRFPEAFSSIHYKGTRTYNPPTDFSGLRRALEQLLENNTTRSPRHPGVIFKALKALSDRFSGEIPDDQMAHSSFFPDEYFTCSSLCLSCGVGCKKSMNHGKEGVPHEAKSRCRYSHQYDNRVYTCKACYERGEEVSVVPKTSASTDSPWMGLAKYAWSGYVIECPNCGVVYRSRQYWFGNQDPVDTVVRTEIVHVWPGTDGFLKDNNNAAQRLLDGMNFMAQSVSELSLGPTKAVTSWLTDQIAPAYWRPNSQILSCNKCATSFKDNDTKHHCRACGEGFCDSCSSKTRPVPERGWGPAPVRVCDNCYEARNVQLAVTEAQVDDEGGTLIARKVGEAVQNTLGAVVTAIDIPLGLVKDAARPAYWVPDHEILHCHNCRKEFSIKLSKHHCRACGQGFCDECSHDRRAVPSRGWDHPVRVCFNCNKKPGDL
For B1, the binding entry in assay [1] was “no binding”.

B2: Myc-tagged STX17 (syntaxin 17), P56962 1-302 (protein)
chain: T2 chain
B2: the binding entry with Flag-tagged Drp1, O00429 is reported as “no binding”; with Flag-tagged Mfn2, O95140, “no binding”.

B3: ATG5, Q9H1Y0 1-275 (protein)
chain: MTDDKDVLRDVWFGRIPTCFTLYQDEITEREAEPYYLLLPRVSYLTLVTDKVKKHFQKVMRQEDISEIWFEYEGTPLKWHYPIGLLFDLLASSSALPWNITVHFKSFPEKDLLHCPSKDAIEAHFMSCMKEADALKHKSQVINEMQKKDHKQLWMGLQNDRFDQFWAINRKLMEYPAEENGFRYIPFRIYQTTTERPFIQKLFRPVAADGQLHTLGDLLKEVCPSAIDPEDGEKKNQVMIHGIEPMLETPLQWLSEHLSYPDNFLHISIIPQPTD
For the molecule B3, in assay [2], the binding entry is given as “no binding”.

B4: WIPI-1 (protein, UniProt Q5MNZ9 1-446)
chain: MEAEAADAPPGGVESALSCFSFNQDCTSLATGTKAGYKLFSLSSVEQLDQVHGSNEIPDVYIVERLFSSSLVVVVSHTKPRQMNVYHFKKGTEICNYSYSSNILSIRLNRQRLLVCLEESIYIHNIKDMKLLKTLLDIPANPTGLCALSINHSNSYLAYPGSLTSGEIVLYDGNSLKTVCTIAAHEGTLAAITFNASGSKLASASEKGTVIRVFSVPDGQKLYEFRRGMKRYVTISSLVFSMDSQFLCASSNTETVHIFKLEQVTNSRPEEPSTWSGYMGKMFMAATNYLPTQVSDMMHQDRAFATARLNFSGQRNICTLSTIQKLPRLLVASSSGHLYMYNLDPQDGGECVLIKTHSLLGSGTTEENKENDLRPSLPQSYAATVARPSASSASTVPGYSEDGGALRGEVIPEHEFATGPVCLDDENEFPPIILCRGNQKGKTKQS
As for B4, in assay [1], the binding entry is “no binding”.

B5: ULK1, O75385 1-1050 (protein)
chain: MEPGRGGTETVGKFEFSRKDLIGHGAFAVVFKGRHREKHDLEVAVKCINKKNLAKSQTLLGKEIKILKELKHENIVALYDFQEMANSVYLVMEYCNGGDLADYLHAMRTLSEDTIRLFLQQIAGAMRLLHSKGIIHRDLKPQNILLSNPAGRRANPNSIRVKIADFGFARYLQSNMMAATLCGSPMYMAPEVIMSQHYDGKADLWSIGTIVYQCLTGKAPFQASSPQDLRLFYEKNKTLVPTIPRETSAPLRQLLLALLQRNHKDRMDFDEFFHHPFLDASPSVRKSPPVPVPSYPSSGSGSSSSSSSTSHLASPPSLGEMQQLQKTLASPADTAGFLHSSRDSGGSKDSSCDTDDFVMVPAQFPGDLVAEAPSAKPPPDSLMCSGSSLVASAGLESHGRTPSPSPPCSSSPSPSGRAGPFSSSRCGASVPIPVPTQVQNYQRIERNLQSPTQFQTPRSSAIRRSGSTSPLGFARASPSPPAHAEHGGVLARKMSLGGGRPYTPSPQVGTIPERPGWSGTPSPQGAEMRGGRSPRPGSSAPEHSPRTSGLGCRLHSAPNLSDLHVVRPKLPKPPTDPLGAVFSPPQASPPQPSHGLQSCRNLRGSPKLPDFLQRNPLPPILGSPTKAVPSFDFPKTPSSQNLLALLARQGVVMTPPRNRTLPDLSEVGPFHGQPLGPGLRPGEDPKGPFGRSFSTSRLTDLLLKAAFGTQAPDPGSTESLQEKPMEIAPSAGFGGSLHPGARAGGTSSPSPVVFTVGSPPSGSTPPQGPRTRMFSAGPTGSASSSARHLVPGPCSEAPAPELPAPGHGCSFADPITANLEGAVTFEAPDLPEETLMEQEHTEILRGLRFTLLFVQHVLEIAALKGSASEAAGGPEYQLQESVVADQISLLSREWGFAEQLVLYLKVAELLSSGLQSAIDQIRAGKLCLSSTVKQVVRRLNELYKASVVSCQGLSLRLQRFFLDKQRLLDRIHSITAERLIFSHAVQMVQSAALDEMFQHREGCVPRYHKALLLLEGLQHMLSDQADIENVTKCKLCIERRLSALLTGICA
Consider B5, for which the binding entry in assay [2] is on record as “no binding”.

(Values after paper PMC6499814.)
